# From the supplement of paper PMC12217912
# The list shows a part of the results. Sequences were assembled here from the parent chain. Values near 0.05 are background.
# B1: TEV protease; numbered along this chain (parent)
# chain: MGESLFKGPRDYNPISSSICHLTNESDGHTTSLYGIGFGPFIITNKHLFRRNNGTLVVQSLHGVFKVKDTTTLQQHLVDGRDMIIIRMPKDFPPFPQKLKFREPQREERICLVTTNFQTKSMSSMVSDTSCTFPSGDGIFWKHWIQTKDGQCGSPLVSTRDGFIVGIHSASNFTNTNNYFTSVPKNFMELLTNQEAQQWVSGWRLNADSVLWGGHKVFMVKPEEPFQPVKEATQL
# Variants of: B1
# Test: raw area under fraction-flipped curve 0-4 h after induction (AUC4h, not background-subtracted), DNA-recorder readout of cleavage of the substrate (dimensionless); higher = more cleavage of the substrate by the protease variant
# Conditions: temperature: 34 °C; time window: 0-4 h after rhamnose induction
# Procedure: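 In vivo DNA recorder in E. coli TOP10(DE3) ΔrhaA at 34 °C. Each TEVp single-site mutant (parent TEVp 0) is paired with a single-site variant of the 7-mer TEVs (canonical ENLYFQ|S). The substrate sits between flexible linkers in a Bxb1-sfGFP-TEVs-SsrA fusion, so cleavage stabilises Bxb1 and speeds flipping of a recombination array, read by NGS. The value is the raw area under the fraction-flipped curve over 0-4 h after rhamnose induction (AUC4h), with ≥20 reads per time point. It is not background-subtracted; inactive controls average about 0.047.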
# 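Note: Bxb1 expression induced with 0.2% (w/v) L-rhamnose at OD600 near 0.5, cultures sampled hourly, flipped fraction per protease–substrate barcode pair counted by paired-end Illumina sequencing.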
Variant,area with substrate ENLYFQA,area with substrate ENLYFQC,area with substrate ENLYFQK,area with substrate ENLYFQS,area with substrate ENLYFQT,area with substrate ENLYFQY,area with substrate ENLYFQG,area with substrate ENLYFQH,area with substrate ENLYFQI,area with substrate ENLYFQL,area with substrate ENLYFQM,area with substrate ENLYFQR,area with substrate ENLYFQV,area with substrate ENLYFQW,area with substrate ENLYFQD,area with substrate ENLYFQE,area with substrate ENLYFQF,area with substrate ENLYFQN,area with substrate ENLYFQQ,area with substrate ENLYFQP
N175E,0.074,0.0956,0.0628,0.0759,0.0644,0.0673,–,–,–,–,–,–,–,–,–,–,–,–,–,–
N193T,0.106,0.0857,–,0.0921,0.0654,–,0.0775,0.0616,0.061,0.0671,0.0627,0.0644,0.0927,0.0631,–,–,–,–,–,–
T147I,0.0658,0.0915,0.0592,0.0854,0.0637,0.0728,–,0.0609,0.0445,0.0528,0.0643,0.0312,–,0.0689,–,–,–,–,–,–
T147W,0.0655,0.0622,0.0604,0.0603,0.0247,–,0.0626,–,0.06,0.0539,0.061,0.0548,0.0562,0.0562,0.0584,0.0691,0.0738,0.0584,0.0584,–
P155N,0.0455,0.0557,0.0504,0.0501,0.0441,0.0471,0.0439,–,0.0389,0.0473,0.0414,0.0429,0.0476,0.0568,–,–,0.0426,0.0574,0.0601,0.0556
S182N,0.0796,0.0872,–,0.0819,0.0473,–,0.0993,0.0497,0.0496,0.0469,0.0711,0.059,0.0657,–,0.0544,–,0.0785,0.053,0.0557,0.0522
S182K,0.0809,0.0969,0.0605,0.079,–,0.0532,0.0837,0.0688,0.0663,0.0534,0.0723,0.0655,0.057,0.0508,0.056,0.0573,0.054,–,0.0586,0.0606
L190H,0.108,0.0999,–,0.0899,–,–,0.0733,0.0677,0.0556,0.0581,0.111,0.0628,–,0.0673,–,0.06,–,0.0593,0.0723,–
M188W,0.0783,0.131,0.067,0.101,0.0418,0.076,0.0978,–,0.0611,–,–,0.0661,0.0647,0.0715,–,–,0.07,0.0592,–,0.0302
M188E,0.0781,0.114,0.0722,0.0964,–,–,–,–,–,0.0665,0.102,–,–,–,–,–,–,0.0918,–,–
E195M,0.101,0.099,–,0.0862,0.0613,0.0775,0.075,0.0573,–,0.0621,0.112,–,0.0391,–,–,–,–,0.0679,–,0.0533
V200M,0.0709,0.0646,0.0552,0.0825,0.0603,0.0468,–,0.0652,0.0607,0.0674,0.0748,0.0501,0.0826,0.0566,0.0813,–,–,0.0764,–,0.0553
S158D,0.0784,0.0926,0.0617,0.0798,–,0.0617,–,0.0449,–,0.0636,–,0.0544,0.0579,0.0535,–,–,0.0537,0.0752,–,–
A196E,0.0921,0.114,–,0.106,0.0566,–,0.106,0.088,0.0607,0.0654,–,0.0571,0.0541,0.0645,0.0732,0.0686,0.0855,0.0954,–,0.0768
R204C,0.0938,0.131,–,0.119,0.0852,0.0752,0.104,0.0998,0.0887,0.0729,–,0.0634,0.0646,0.069,–,0.0643,0.0854,0.102,–,0.0388
L156G,0.0738,0.0624,–,0.0547,0.0523,–,–,–,0.0518,0.044,0.0628,0.0397,0.0413,–,–,–,–,0.0561,–,0.0551
L156S,0.0646,0.062,0.0525,0.0651,–,–,–,–,0.06,0.0412,–,0.0579,0.0565,–,0.0621,–,0.0704,0.0628,–,–
H168C,0.067,0.0622,–,0.0622,0.0596,–,–,0.0677,0.0811,0.06,0.0596,0.0529,–,0.0473,0.0498,0.0498,–,0.0628,–,0.0692
N206S,0.102,–,0.0644,0.109,0.0619,–,–,–,0.0621,0.0654,0.0932,0.0625,0.0561,–,0.0926,–,–,0.0781,–,–
W199R,0.0675,0.0693,0.0617,0.0612,0.0598,0.0658,–,0.0608,0.0574,0.0584,–,0.0674,0.0587,0.0541,0.0736,–,–,0.0541,–,–
W199C,0.0596,0.0698,0.073,0.0659,0.062,0.0697,–,–,0.0597,–,0.0524,–,–,–,0.0684,–,–,0.0339,–,–
E189M,0.0893,0.0891,0.0498,0.0924,0.0904,0.105,0.095,0.0738,0.0526,–,0.0708,0.0604,0.0565,0.062,–,–,0.0594,0.0677,–,–
G150P,0.0614,0.0529,0.0487,0.0587,0.059,0.0631,0.0608,0.0201,0.0586,0.0541,0.0572,0.0442,–,0.0683,0.0652,0.0637,0.0745,0.0595,–,0.0625
G150Q,0.0728,–,0.0489,0.0612,0.0599,–,0.0557,–,–,0.0601,0.0536,0.0631,0.0511,–,–,–,0.034,–,–,–
S171V,0.0751,0.0844,0.0597,0.0751,0.0817,–,0.0498,0.0672,0.061,0.063,0.0636,0.0511,0.0521,–,–,–,0.0627,0.0709,–,–
P184M,0.0641,0.0538,0.0596,0.07,0.0548,0.0622,0.0659,–,0.0544,0.0579,0.0288,0.0491,0.0567,–,0.0574,0.0713,–,0.0632,0.0377,–
